Tested on: CB1 as well as other G-protein-coupled receptors (rat hippocampal membranes)
Experiment: [35S]GTPγS binding to rat hippocampal membranes
Type: biochemical

CCCCC/C=C\C/C=C\C/C=C\C/C=C\CCCC(=O)N(Cc1ccc(O)c(Cl)c1)Cc1ccc(O)c(Cl)c1 [O-2093, N,N-Di-3-chloro-4-hydroxybenzylarachadonamide]
GTPgammaS binding (Emax): −30 (−11.3 to −39.9)
